In the supplement of paper PMC3334620:
In all, about 33,000 sequences were measured (“E-score (-0.5 to 0.5)”: median about -0.035, highest 2% from about 0.34 on). This is one part of the list.

Biological target: T1, Mot3 (UniProt P54785)
T1 sequence: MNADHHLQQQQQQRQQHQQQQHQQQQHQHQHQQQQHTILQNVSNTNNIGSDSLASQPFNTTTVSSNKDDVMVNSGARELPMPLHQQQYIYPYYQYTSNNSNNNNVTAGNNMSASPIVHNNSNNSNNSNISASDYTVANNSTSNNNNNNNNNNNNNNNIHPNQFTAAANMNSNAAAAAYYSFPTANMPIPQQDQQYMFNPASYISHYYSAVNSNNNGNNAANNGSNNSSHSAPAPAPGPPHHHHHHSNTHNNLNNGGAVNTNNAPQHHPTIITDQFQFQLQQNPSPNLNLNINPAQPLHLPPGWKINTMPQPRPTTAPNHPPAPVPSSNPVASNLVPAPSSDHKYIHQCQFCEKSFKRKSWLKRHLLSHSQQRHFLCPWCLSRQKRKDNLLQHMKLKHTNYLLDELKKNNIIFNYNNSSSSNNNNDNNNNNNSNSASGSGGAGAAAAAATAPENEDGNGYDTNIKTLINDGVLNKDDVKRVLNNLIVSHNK
Test: PBM E-score (8-mer binding enrichment) (E-score (-0.5 to 0.5)); higher = stronger / more preferred TF binding; most listed sequences are background and not binding sites
Settings: protein concentration: 200 nM; construct: GST-full length
In short: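 Universal all-10-mer Agilent arrays, double-stranded by primer extension on fresh or once-stripped slides, were probed with about 100-200 nM GST-tagged yeast transcription factors made by PURExpress. Fluorescent anti-GST detected bound protein, and masliner normalised the scans. E-scores from the Universal PBM Analysis Suite were given to each ungapped eight-base word pooled with its reverse complement.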

Row | Sequence | PBM E-score
1 | AGTAGCAG | -0.0786
2 | CAAGCCCA | -0.121
3 | CAATCGAA | -0.072
4 | AACTGGTG | -0.193
5 | CACCATCA | -0.00358
6 | AAGCTGGA | -0.172
7 | TAGAGGCA | 0.389
8 | GTTTCTCA | -0.169
9 | AAGTCCGA | -0.102
10 | TAAAGGGA | 0.016
11 | AGATACGG | -0.243
12 | GATATAGC | -0.192
13 | GACACATC | -0.0862
14 | AAGAGCCA | -0.02
15 | CTGCGATA | -0.111
16 | CCTTTTAA | 0.316
17 | GGGGAAAC | -0.107
18 | GTATTGAC | 0.0413
19 | ACGACCGA | -0.0732
20 | CTCATGGA | 0.261
21 | ATCCAATG | -0.169
22 | AAGAGACC | 0.015
23 | GGGATGTA | 0.188
24 | CCAGGAGC | -0.247

Row | Sequence | PBM E-score
25 | GACACTCC | -0.00198
26 | TTCTGAAA | 0.0514
27 | ATACTGTA | 0.103
28 | CATTTGCC | 0.127
29 | GACGTCTA | -0.114
30 | ACAACCGG | 0.0109
31 | AATGATAC | 0.0498
32 | CACTTCAA | 0.121
33 | CGAGTACC | 0.13
34 | AGGCGCAC | 0.251
35 | ACGGCCGC | -0.195
36 | GGAAGGGA | -0.292
37 | AGAAGGGA | -0.376
38 | GGAGGTTA | -0.0376
39 | GCCGAGCA | -0.238
40 | GTATATCA | 0.132
41 | AAAGAGGA | -0.112
42 | CGGTCAGC | -0.117
43 | AAATTAGC | -0.0299
44 | CACCTCCC | -0.194
45 | AAACAACT | 0.0594
46 | CTGCGTGC | 0.0739
47 | CCCTGCTC | -0.187
48 | GGAGACCA | -0.243

Row | Sequence | PBM E-score
49 | CCGGACGG | -0.304
50 | CTCTAGGC | 0.19
51 | CCTGAAAC | 0.147
52 | CACTGATC | -0.196
53 | CGCCCTTA | -0.0174
54 | CTTTACCC | 0.0496
55 | CGGCATGA | -0.315
56 | AGGGTGAA | -0.157
57 | CATATTCA | 0.108
58 | CGGTACGA | -0.155
59 | GGCTTGGA | -0.2
60 | CCGATGCG | -0.167
61 | CAAGTGTG | 0.0364
62 | AAGGGGCT | 0.0322
63 | CCCACGCG | -0.336
64 | CGAACACG | 0.171
65 | GTGCTTGA | 0.0355
66 | GCGTATCC | 0.132
67 | ACCCATTA | 0.01
68 | GCCAGTTA | -0.0746
69 | GGCGGACA | -0.218
70 | ACTCCCCG | 0.0263
71 | AATTGCCG | -0.145
72 | GGTGACCA | -0.218

Row | Sequence | PBM E-score
73 | CGACCCTA | -0.148
74 | CTTAAATA | 0.0129
75 | AGTCGTAT | -0.0638
76 | CATGGGAA | -0.0237
77 | ATGTACGG | 0.0566
78 | CTTGTGGA | 0.119
79 | AGCAATAT | 0.0959
80 | AGAGTCAA | -0.0121
81 | GGTAATAA | 0.163
82 | CTAATTAC | 0.289
83 | ACATGCTA | 0.301
84 | CGAAGCCG | -0.25
85 | AGGTAGCA | -0.133
86 | CGCGTTTA | 0.175
87 | AAGGAGAC | -0.0743
88 | AATAAAAA | 0.128
89 | GAGTTAGA | -0.0609
90 | ACCATAGG | 0.0494
91 | CGAAGTCG | -0.0023
92 | GATTATCA | 0.0319
93 | AGTTGGCG | -0.166
94 | CGACGTCG | -0.168
95 | GACAGAGA | 0.00973
96 | GATGGTAA | -0.0348

Row | Sequence | PBM E-score
97 | GATCTGGC | 0.0157
98 | GGGGGCAC | -0.156
99 | CAGAGCAC | -0.199
100 | ATCCGATG | -0.0714
101 | ATCGGTGG | -0.262
102 | CCCCTTCC | -0.218
103 | ACTAAAGG | 0.124
104 | ATTCACAA | 0.122
105 | GAATGGGC | -0.0744
106 | CGCACGCG | -0.0139
107 | GAGTTGAA | -0.143
108 | AAAAGGCG | 0.278
109 | GATAAGGC | 0.128
110 | AATAAATC | -0.0169
111 | CCTAATCC | -0.0698
112 | AGTGAACT | -0.0322
113 | CTTCCCGC | -0.101
114 | CATACGAA | 0.0804
115 | GTCCCCTA | -0.202
116 | AACTGGCT | -0.11
117 | AGGGCCCA | -0.343
118 | ACCCATCA | 0.0754
119 | AGAGCGGG | -0.167
120 | CGAAGGCC | -0.0438

Row | Sequence | PBM E-score
121 | CACATTGC | 0.126
122 | CTGCCTTA | 0.059
123 | ATCGGATA | 0.0936
124 | GCATATAA | 0.156
125 | CTCGCTCA | -0.157
126 | CGGGGAGA | -0.287
127 | CCCTAAAG | -0.267
128 | CTGAGCTC | -0.152
129 | CGTGATCC | -0.146
130 | CACCCTAC | 0.0564
131 | CTGGCGCC | 0.102
132 | TAAATCCA | 0.0752
133 | ATACGTGG | 0.128
134 | GGTTTGAC | -0.196
135 | CGTAGAAG | 0.118
136 | CTCCGCAG | -0.144
137 | ACTACGAC | -0.00764
138 | ATATCTGG | -0.154
139 | CTTCATTC | -0.196
140 | CGTACCTA | 0.395
141 | TATTGCAA | 0.0287
142 | CGCAAAAG | -0.0457
